Assay results as given in PubChem BioAssay (NCATS).
Where “and” joins values, the source holds several entries; their conditions need not be identical. Equal entries are not always repeated. The shares of active, inactive and inconclusive entries below differ from those in the screen. For part of these data: A potency beside an inconclusive call is a rough fit, not a confirmed value. For part of these data: “Side channel” marks fits to a control or component signal instead of the main read-out. Calls of active or inactive are those of the source. Unless noted, the call rests on the fitted dose curve; in most records, active means well fitted curve in the direction sought with a large enough effect; inconclusive means small, poorly fitted or top-dose-only effect, or another doubt; inactive means no such curve, though single readings can be large; an effect the other way counts as inactive or inconclusive.

What was measured:
[1] = Cell Viability - BJ (AID 421; calls by dose curve;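 further: potency means the concentration at half of the fitted maximal effect; cells exposed to compound for 40 hours at 37 °C before readout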); conditions: BJ fibroblast viability, qHTS
In short: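 Cytotoxicity in human BJ foreskin fibroblasts is scored as loss of cellular ATP after a 40-hour exposure, measured by luciferase luminescence. Controls are DMSO and 100 uM tamoxifen.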

[2] = Cell Viability - LYMP2-004 (AID 966); conditions: LYMP2-004 lymphoblastoid cell viability, qHTS; activity change, negative = cytotoxicity: at 92.2 µM (top of the series); further: potency means the concentration at half of the fitted maximal effect; nearly all actives have a fitted effect of over 65% in size
In short: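 Acute toxicity is scored as a concentration-dependent drop in intracellular ATP, quantified by luciferase luminescence, in human lymphoblastoid cells exposed to compound for 24 hr. AC50 derives from Hill-equation modelling.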

[3] = Cell Viability - HepG2 (AID 433; calls by dose curve;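 further: potency means the concentration at half of the fitted maximal effect; cells exposed to compound for 40 hours; potency for ATP loss meaning cytotoxicity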); conditions: qHTS
In short: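 Read-out is luciferase-based quantitation of cellular ATP as a measure of viable HepG2 cells after 40 h treatment at 37 °C. Signal decrease is scaled between DMSO-only and 100 uM tamoxifen controls, with AC50 fitted by the Hill equation.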

[4] = Cellular Toxicity (caspase-3) Jurkat (AID 655); conditions: Jurkat caspase-3 activation, luminescence; caspase-3 activation: at 92.2 µM (top of the series), DMSO = 0%, tamoxifen = 100%;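 further: cells exposed to compound for 16 h at 37 °C before reading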
In short: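 5000 Jurkat cells/well; compound 16 hr, 37 °C; Caspase-Glo 3/7 added, 20 min RT; luminescence read. Norm: DMSO = 0%, tamoxifen 100 uM = 100%. AC50, Hill model.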

[5] = Cell Viability - LYMP2-009 (AID 968); conditions: LYMP2-009 lymphoblastoid cell viability; series mostly up to 92.2 µM; further: potency means the concentration at half of the fitted maximal effect; nearly all actives have a fitted effect of over 55% in size
[6] = Cell Viability - LYMP2-017 (AID 972); conditions: LYMP2-017 lymphoblastoid cell viability; series mostly up to 92.2 µM;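 further: potency means the concentration at half of the fitted maximal effect; cells exposed to compound for 24 hours at 37 °C; nearly all actives have a fitted effect of over 55% in size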
In short: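 Steps: plate 2500 lymphoblastoid cells per well; incubate 5 hr at 37 C; add compound across a concentration series and incubate 24 hr at 37 C; add CellTiter-Glo and read luminescence after 30 min at room temperature; fit Hill curves for AC50.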

[7] = Cell Viability - LYMP2-002 (AID 977); conditions: LYMP2-002 lymphoblastoid cell viability, qHTS; activity change, negative = cytotoxic: at 92.2 µM (top of the series); further: potency means the concentration at half of the fitted maximal effect
In short: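 Luminescent ATP readout (CellTiter-Glo, 30 min room temperature) after 24 h compound exposure at 37 C of a human lymphoblastoid line, 2500 cells/well. AC50 values derived by standard Hill fitting of qHTS concentration-response data.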

[8] = Cell Viability - LYMP2-010 (AID 981); conditions: LYMP2-010 lymphoblastoid cell viability, qHTS; series mostly up to 92.2 µM;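 further: potency means the concentration at half of the fitted maximal effect; cells exposed to compound for 24 hours at 37 °C; nearly all actives have a fitted effect of over 55% in size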
In short: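 Acute toxicity is scored as a concentration-dependent loss of cellular ATP in human lymphoblastoid cells after 24 hr compound exposure in complete medium. Tetraoctylammonium bromide is the positive control.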

[9] = Cell Viability - LYMP2-022 (AID 987); conditions: LYMP2-022 lymphoblastoid cell viability; viability change, negative = cytotoxic: at 92.2 µM (top of the series); further: potency means the concentration at half of the fitted maximal effect; nearly all actives have a fitted effect of over 55% in size
In short: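 Acute toxicity in a human lymphoblastoid line is scored as decreased intracellular ATP after 24 hr compound treatment at 37 C. ATP is measured by CellTiter-Glo luminescence; curves are fitted with the Hill equation to give AC50.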

[10] = Cell Viability - LYMP2-026 (AID 989); conditions: LYMP2-026 lymphoblastoid cell viability, qHTS; activity change, negative = cytotoxic: at 92.2 µM (top of the series); further: potency means the concentration at half of the fitted maximal effect; nearly all actives have a fitted effect of over 50% in size
In short: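 Concentration-dependent loss of intracellular ATP in human lymphoblastoid cells after 24 hr at 37 C, quantified by luciferase luminescence. AC50 derived from standard Hill equation.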

[11] = biological target: Peroxisome proliferator-activated receptor delta (Homo sapiens) (UniProt Q03181); assay: qHTS assay for small molecule agonists of peroxisome proliferator-activated receptor delta signaling (AID 588534; calls by dose curve; further: potency means the concentration at half of the fitted maximal effect); conditions: HEK293T PPARdelta-UAS-bla, beta-lactamase ratio, 18 h; activation: at 76.7 µM (top of the series)
UniProt Q03181, sequence (Q03181 whole entry, looked up): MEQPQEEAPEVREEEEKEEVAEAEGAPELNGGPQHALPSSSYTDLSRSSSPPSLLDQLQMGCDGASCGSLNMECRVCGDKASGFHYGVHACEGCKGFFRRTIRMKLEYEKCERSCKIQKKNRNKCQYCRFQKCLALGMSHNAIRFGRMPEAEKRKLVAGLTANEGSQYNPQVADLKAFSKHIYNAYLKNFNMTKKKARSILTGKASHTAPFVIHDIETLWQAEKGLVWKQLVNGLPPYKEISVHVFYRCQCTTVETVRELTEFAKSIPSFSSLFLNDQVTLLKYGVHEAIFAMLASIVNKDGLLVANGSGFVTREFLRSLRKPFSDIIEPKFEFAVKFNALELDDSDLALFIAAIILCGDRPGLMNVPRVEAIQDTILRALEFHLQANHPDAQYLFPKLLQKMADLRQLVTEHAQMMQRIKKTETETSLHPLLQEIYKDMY
In short: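 Reporter cells were plated and held 5 hrs at 37 C before compounds were added. After 18 hrs at 37 C, CCF4 dye was loaded for 2 hrs at RT and fluorescence measured.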

[12] = biological target: Vitamin D3 receptor (Homo sapiens) (UniProt P11473); assay: qHTS assay for small molecule agonists of vitamin D receptor signaling (AID 588543; calls by dose curve; further: potency means the concentration at half of the fitted maximal effect); conditions: HEK293T VDR-UAS-bla, beta-lactamase ratio, 16 h; activation: at 76.8 µM (top of the series)
In short: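 Reporter cells (HEK293T, VDR-UAS-bla) were seeded in medium with 2% charcoal-stripped serum and incubated 5 h, then compounds in concentration series were added for 16 h at 37 °C. Stimulation was scaled between DMSO basal and 50 nM 1α,25-dihydroxyvitamin D3.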

[13] = qHTS assay for cell viability of HEK293 cells (AID 743288); conditions: ATP luminescence (CellTiter-Glo), 18 h; max response: hits give low values; further: potency means the concentration at half of the fitted maximal effect; nearly all actives have a fitted effect of over 50% in size
In short: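 HEK293 parental, 2,000 cells/well; ≥5 h pre-incubation 37 C; pintool compound addition; 18 h, 37 C; CellTiter-Glo 30 min RT; luminescence read.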

[14] = Cell Viability - N2a (AID 540); conditions: N2a mouse neuroblastoma cell viability; activity change, negative = cytotoxicity: at 92.2 µM (top of the series);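 further: cells exposed to compound for 40 h at 37 °C; plate controls were DMSO alone for no effect and tamoxifen control for full effect; nearly all actives have a fitted effect of over 45% in size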
In short: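 First, 1500 N2a cells per well incubate 5 hr at 37 °C; next, compounds are added and incubated 40 hr at 37 °C; finally CellTiter-Glo is added and luminescence read after 20 min, with AC50 derived by Hill modeling.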

[15] = Cell Viability - Renal Proximal Tubule (AID 545); conditions: renal proximal tubule cells viability; activity change, negative = cytotoxicity: at 91.7 µM (top of the series) unless noted;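 further: cells exposed to compound for 40 hours; nearly all actives have a fitted effect of over 40% in size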
In short: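 Luminescent ATP signal (CellTiter-Glo) served as the viability read-out after 40 hr compound exposure of freshly isolated rat proximal tubule cells at 37 °C. Concentration-dependent ATP loss was fitted with the Hill equation to give AC50.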
Tags describe the fitted curve by direction and shape or compound fluorescence and quenching.

Compound	Potency [1]	Potency [2]	Potency [3]	caspase-3 activation [4]	Potency [5]	Potency [6]	Potency [7]	Potency [8]	Potency [9]	Potency [10]	Potency [11]	Potency [12]	Potency [13]	activity change, negative = cytotoxicity [14]	activity change, negative = cytotoxicity [15]
C=CCc1ccc(OC)cc1	inactive: > 92 µM	inconclusive: 0.02 µM [cytotoxic, full curve, poor fit]													
O=C1C2(Cl)C3(Cl)C4(Cl)C(Cl)(Cl)C5(Cl)C3(Cl)C1(Cl)C5(Cl)C24Cl (centres undefined)	active: 26.8 µM and active: 61.3 µM	active: 39.8 µM	active: 31.3 µM and active: 59.3 µM	inconclusive: 64.1% and inconclusive: 69.2%	active: 50.1 µM	active: 50.1 µM	inconclusive: 100 µM [cytotoxic, partial curve, poor fit] and inconclusive: 79.4 µM [cytotoxic, partial curve, poor fit]	inconclusive: 50.1 µM [cytotoxic, partial curve, poor fit] and inconclusive: 50.1 µM [cytotoxic, partial curve]	inconclusive: 50.1 µM [cytotoxic, partial curve, poor fit]	inconclusive: 79.4 µM [cytotoxic, single point]	inconclusive: 28.2 µM [side channel, falling, full curve, poor fit]	inconclusive: 50.1 µM [rising, single point]	inconclusive: 56.2 µM [cytotoxic, partial curve, poor fit]		
CN(C)c1ccc(N)cc1	active: 28.3 µM	inconclusive: 50.1 µM [cytotoxic, partial curve, poor fit]				active: 50.1 µM	inconclusive: 79.4 µM [cytotoxic, partial curve, poor fit]		active: 50.1 µM	inconclusive: 79.4 µM [cytotoxic, single point]			inconclusive: 50.1 µM [cytotoxic, partial curve, poor fit]	active: -109%	inconclusive: -47.2%
